# In all, about 110,000 compounds were measured (“z-score”: median about -0.1, highest 2% from about 2 on). Some of the results follow. Active and inactive are the calls of the source.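 The calls were made as follows: active = z-score in the third read window above 3 or below -3; inactive = the rest.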
# Target: Metabotropic glutamate receptor 8 (Rattus norvegicus) (UniProt P70579)
# Assay: mGluR8 Gi/Go-coupled signaling modulation – cell-based, rat, thallium flux, HTS, primary screen (AID 488969)
# Conditions: HEK293 rat mGluR8, GIRK (G protein-gated inwardly rectifying potassium channel) thallium flux, FluoZin2; at 10 µM; stronger effect = higher value; submaximal glutamate (EC20) added with thallium
# Sequence of UniProt P70579 (P70579 whole entry, looked up): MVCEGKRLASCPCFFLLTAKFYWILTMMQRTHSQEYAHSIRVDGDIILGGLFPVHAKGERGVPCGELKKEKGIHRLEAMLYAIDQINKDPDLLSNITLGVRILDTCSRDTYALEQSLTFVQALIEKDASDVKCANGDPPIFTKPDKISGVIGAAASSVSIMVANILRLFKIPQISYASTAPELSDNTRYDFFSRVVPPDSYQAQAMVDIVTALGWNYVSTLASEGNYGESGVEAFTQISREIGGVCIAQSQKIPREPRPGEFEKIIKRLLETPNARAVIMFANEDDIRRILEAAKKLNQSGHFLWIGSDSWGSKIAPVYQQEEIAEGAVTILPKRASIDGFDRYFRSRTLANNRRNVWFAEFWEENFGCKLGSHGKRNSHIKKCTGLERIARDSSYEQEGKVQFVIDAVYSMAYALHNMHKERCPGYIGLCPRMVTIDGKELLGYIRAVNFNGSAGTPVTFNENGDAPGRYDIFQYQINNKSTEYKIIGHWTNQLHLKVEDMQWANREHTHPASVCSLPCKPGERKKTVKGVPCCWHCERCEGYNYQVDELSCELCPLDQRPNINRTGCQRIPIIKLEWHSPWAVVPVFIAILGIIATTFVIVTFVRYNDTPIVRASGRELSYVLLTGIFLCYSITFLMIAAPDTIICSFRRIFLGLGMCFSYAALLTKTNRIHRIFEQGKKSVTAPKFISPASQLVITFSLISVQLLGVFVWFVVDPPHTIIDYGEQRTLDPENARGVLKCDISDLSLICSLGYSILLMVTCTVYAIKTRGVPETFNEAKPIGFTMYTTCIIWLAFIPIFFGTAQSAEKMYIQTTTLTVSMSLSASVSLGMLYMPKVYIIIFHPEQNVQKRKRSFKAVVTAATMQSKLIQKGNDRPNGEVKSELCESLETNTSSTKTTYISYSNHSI
row,SMILES,z-score
1,O=C(COC(=O)c1ccccc1NC(=O)c1ccco1)Nc1ccc2c(c1)OCO2,-0.318
2,O=C(NCc1ccc2c(c1)OCO2)C1CC(=O)N(c2ccc(F)cc2)C1 (centres undefined),0.589
3,Cc1cc2nc(-c3cccnc3SCC(=O)NCc3ccco3)[nH]c2cc1C,0.149
4,Cn1c(SCc2ccccc2Cl)nc2ccccc21,-0.264
5,CCOC(=O)C1=C(C)NC(=O)NC1c1ccc(OCCO)c(OC)c1 (centres undefined),-0.455
6,CCC1CCCCN1C(=O)c1cc2cc(Br)ccc2oc1=O (centres undefined),active: 7.8
7,Cc1ccc(C(=O)NC(=S)N2CC(C)OC(C)C2)cc1[N+](=O)[O-] (centres undefined),0.465
8,COc1ccc(/C(C)=N/Nc2ccc(C(=O)O)cc2)cc1OC,-0.146
9,COc1ccccc1C(=O)NCCC(=O)N1CC(=O)Nc2ccccc21,0.0633
10,COc1ccccc1N1Cc2ccccc2C1,0.168
11,CCC1(CC)Cc2ccccc2-c2nc(-c3ccccc3)oc(=O)c21,-0.0114
12,CCCCn1c(SCC(=O)NCCc2ccc(OC)c(OC)c2)nc2c1c(=O)n(C)c(=O)n2C,-0.507
13,NNc1nc2c(F)cc(F)cc2s1,-0.193
14,CCC(C)NC(=O)CSc1nc2c(sc3ccccc32)c(=O)n1CCCN1CCOCC1 (centres undefined),0.452
15,CCCCC(=O)Nc1ccc(NC(=O)c2ccc(C)c([N+](=O)[O-])c2)cc1OC,-0.2
16,CCOC(=O)c1cnn(-c2nc(CC)nc3sc4c(c23)CCC4)c1N,0.937
17,CCOC(=O)c1oc2ccccc2c1CN1CCN(C)CC1,-0.155
18,Cc1cc(Cl)ccc1OCCCC(N)=O,0.108
19,O=C(O)c1cc([N+](=O)[O-])c(N2CCCC2)c([N+](=O)[O-])c1,-0.262
20,Cc1ccc(NC(=O)C(=O)Nc2ccccn2)cc1,0.304
21,O=C1CN(C(=O)COC(=O)c2cccc(S(=O)(=O)NCc3ccccc3)c2)c2ccccc2N1,-0.192
22,Cn1c(SCc2nc(-c3ccc(Cl)cc3)no2)nnc1-c1ccco1,0.0893

row,SMILES,z-score
1,Cn1c(=O)c2c(nc(-n3ccnc3)n2Cc2ccc([N+](=O)[O-])cc2)n(C)c1=O,-0.129
2,O=C(NCc1cccs1)c1ccc([N+](=O)[O-])cc1Cl,-0.192
3,O=C(CN1C(=O)c2cccc3cccc1c23)Nc1ccc(S(=O)(=O)Nc2nccs2)cc1,-0.289
4,Cc1[nH]c2ccccc2c1/C=N/Nc1ccc([N+](=O)[O-])cc1S(=O)(=O)Nc1ccc(Cl)cc1,0.162
5,CCCCOCCCNC(=O)c1c(-c2ccccc2)noc1C,0.0239
6,O=C(CSc1nnc(-c2c[nH]c3ccccc23)o1)c1ccccc1,-0.218
7,CCn1c2c(c3cc(Cl)ccc31)CCCC2=O,-0.422
8,CCOC(=O)N1CCC(NC(=O)c2ccc3c(c2)sc2nc(-c4ccc(OC)cc4)cn23)CC1,1.25
9,CCN(CC)CCCNC(=O)c1nn(-c2ccccc2OC)c(=O)c2ccccc12,0.791
10,O=C(CSc1nc2ccccc2s1)NC1CCS(=O)(=O)C1 (centres undefined),0.199
11,Cc1ccc(-n2c(=O)c3c4c(sc3n(Cc3cc(=O)n5ccccc5n3)c2=O)CCC4)cc1C,-0.236
12,O=C(NCN1CCN(c2ccccc2F)CC1)c1ccccc1,0.915
13,N#Cc1c(/N=C/N2CCCC2)oc(-c2ccccc2)c1-c1ccccc1,-0.221
14,Cc1ccc(NC(=S)NCc2ccc3c(c2)OCO3)cc1C,-0.416
15,O=S(=O)(Nc1ccc2c(c1)OCO2)c1ccccc1,-0.421
16,CCCn1nc(NC(=O)c2ccncc2)c2cc3ccccc3nc21,-0.268
17,CC(C)COc1ccc(/C=C2/Sc3ccccc3C2=O)cc1,-0.0988
18,Cc1ccc(C)c(NC(=S)NC(NC(=O)/C=C/c2ccccc2)C(Cl)(Cl)Cl)c1 (centres undefined),-0.264
19,CC(C(=O)N1CCOCC1)N1C(=O)c2ccccc2C1=O (centres undefined),-0.0607
20,O=C(Nc1c(C(=O)N2CCCCC2)cnn1-c1ccccc1)c1ccco1,-0.0397
21,CCCCCC(=O)NNC(=O)c1ccc(F)cc1,0.0375
22,BrC(/C=N/Nc1nc(N2CCOCC2)nc(N2CCOCC2)n1)=C/c1ccccc1,-0.171

row,SMILES,z-score
1,CC(=O)NS(=O)(=O)c1ccc(NC(=O)CCC2CCCC2)cc1,0.114
2,CCOc1ccc(C2c3cc(OC)c(OC)cc3CC(=O)N2c2ccccc2)cc1 (centres undefined),-0.702
3,Cc1cc2ncn(C(=O)c3c(-c4ccccc4)noc3C)c2cc1C,-0.303
4,CC12CCC(C(=O)NCc3cccnc3)(OC1=O)C2(C)C (centres undefined),-0.201
5,c1cncc(-c2nn3cnnc3s2)c1,0.268
6,COc1cc(OC)c(C2N(c3cc(C)on3)C(=O)C3CCCN32)cc1OC (centres undefined),0.0605
7,COC(=O)c1cc(OC)c(OC)cc1N=CC1=C(O)CC(C)(C)CC1=O,-0.493
8,COc1cccc(-n2nc3c(-n4ncc(C#N)c4N)nnc(C)c3c2C)c1,0.0095
9,Cc1ccc(CNC(=O)c2ccc(CNc3c(N4CCCC4)c(=O)c3=O)cc2)cc1,-0.0913
10,Cc1ccc(-c2ccc(SCC(=O)c3ccccc3)nn2)cc1,0.138
11,COc1ccc(Cl)cc1NC(=S)NCCC(c1ccccc1)c1ccccc1,-0.105
12,Cc1nc(CC(=O)c2ccc(O)cc2O)cs1,0.257
13,COc1cc(-c2nc(Cc3c(F)cccc3Cl)no2)cc(OC)c1OC,-0.564
14,CCCCN(CCCC)c1nc2ccccc2nc1NS(=O)(=O)c1ccc(NC(C)=O)cc1,-0.388
15,O=C(Nc1cc(C(F)(F)F)ccc1N1CCCC1)c1ccc2c(c1)OCO2,-0.575
16,COC(=O)CSC1=C(C#N)C(c2ccc(C)cc2)C2=C(CCCC2=O)N1 (centres undefined),-1.41
17,CCOc1cc2[nH]c(=S)n(CC3CCCO3)c(=O)c2cc1OCC (centres undefined),-0.137
18,CC1CCCCC1NC(=O)Cn1c(CN2CCCCC2)nc2ccccc2c1=O (centres undefined),-0.365
19,COc1cccc(OCCCCN2CC(C)OC(C)C2)c1 (centres undefined),-0.101
20,CCCN(c1ccc(OCC)cc1)S(=O)(=O)c1ccc2c(c1)CCN2C(=O)CCC(=O)O,-0.582
21,O=C(COc1cccnc1[N+](=O)[O-])Nc1cccc(S(=O)(=O)N2CCCCC2)c1,-0.289
22,CCC(=O)NC(=S)Nc1ccc(NC(=O)c2ccc([N+](=O)[O-])cc2Cl)cc1,-0.222

row,SMILES,z-score
1,O=C(N1CCCCC1)N1CCN(C(c2ccccc2)c2ccccc2)CC1,-0.436
2,CCOc1ccc(C(=O)NC(=S)Nc2ccccc2N2CCCCC2)cc1[N+](=O)[O-],0.917
3,c1ccc(-n2c(SCC3CCCCO3)nnc2-c2cccs2)cc1 (centres undefined),-1.71
4,Cc1ccc(C(=O)CSc2nn3c(=O)c(C(C)(C)C)nnc3s2)cc1,-0.119
5,On1c2c(c3c4nonc4ccc31)CCCC2,-1.23
6,CCOC(=O)c1c(-c2ccccc2)nc2cc(C)ccn12,-0.492
7,CCOC(=O)/C(C#N)=c1/s/c(=C2\C=Cc3ccccc3N2CC)c(=O)n1CC,-0.143
8,CN(C)C(=O)CSc1nnc(C23CC4CC(CC(C4)C2)C3)o1,-0.443
9,N#Cc1cc(-c2ccccc2)cnc1Cl,-0.0944
10,Cc1oc(C(=O)O)cc1CSc1nnc(-c2ccccc2)n1C,0.27
11,O=C(N/N=C/c1cccc([N+](=O)[O-])c1)c1cc2ccccc2o1,-0.259
12,Nc1cccc2c1C(=O)N(C(=O)c1cccc(S(=O)(=O)N3CCCCCC3)c1)C2=O,-0.139
13,COc1ccc2c(c1)OC1=C(C(=O)CCC1)C2C1=C(O)CCCC1=O (centres undefined),-0.457
14,COCCn1c(Sc2nc(C)cs2)nc2c1c(=O)[nH]c(=O)n2C,-0.415
15,CC(=O)c1cccc(NC(=O)C2CCN(S(=O)(=O)c3cccs3)CC2)c1,0.399
16,Cc1cc(=O)[nH]c2c1c(C)nn2C1CCCCC1,-0.354
17,O=C(NCCN1CCCC1)C1CCN(S(=O)(=O)N2CCC3(CC2)OCCO3)CC1,0.0078
18,Cn1c(-c2ccccc2)cnc1SCC(=O)NCc1ccco1,0.716
19,O=C(CNC(=O)c1cc2c(s1)CCC2)Nc1ccccc1Br,-0.223
20,Brc1ccc(-c2csc(-c3c[nH]c4ccccc34)n2)cc1,0.0561
21,COc1ccccc1/C=c1\sc2nc(-c3ccccc3OC)nn2c1=O,-0.577
22,Cc1ccc2cc(COC(=O)c3ccncc3)c(=O)[nH]c2c1,-0.162

row,SMILES,z-score
1,Cc1ccc(C(=O)NC(=S)NNS(=O)(=O)c2ccc(C)cc2)cc1,0.234
2,CC1=NN(C(=O)c2ccccc2Br)C(O)(c2cccnc2)C1 (centres undefined),-0.108
3,CCOC(=O)NC(Nc1sc2c(c1C(=O)OC)CCN(C)C2)(C(F)(F)F)C(F)(F)F,-0.197
4,Cc1nnc(SCC(=O)Nc2ncc3c(n2)CC(C)(C)CC3=O)s1,0.0881
5,CCN(CC)C(=O)N1CCC(NC(=O)Cc2ccccc2)CC1,0.989
6,C/C=C/c1ccc(OCCCCOc2ccccc2C(C)=O)c(OC)c1,-0.015
7,O=C(COc1ccccc1)OCc1cc2ccccc2[nH]c1=O,-0.181
8,CCn1c(SCC(=O)Nc2ccc(C(C)=O)cc2)nc2nc3c(cc2c1=O)CCCC3,-1.57
9,CCCC(=O)NC(=S)Nc1cccc(NC(=O)c2ccc(Cl)cc2Cl)c1,-0.0719
10,COc1ccc(C(=O)Nc2ccccc2C(=O)N(Cc2ccco2)C(C(N)=O)C(C)C)cc1 (centres undefined),0.216
11,CCOC(=O)Cc1nnc(NC(=O)c2ccccc2OC)s1,-0.102
12,COc1ccc(NC(C)C(=O)Nc2ccc(C(C)(C)C)cc2)cc1Cl (centres undefined),-0.0816
13,Cc1ccc(S(=O)(=O)N[C@H](C(=O)OCC(=O)N2N=C(c3ccc(Cl)cc3)CC2c2ccco2)C(C)C)cc1 (some centres undefined),-0.0385
14,Cc1cc(NC(=O)CSc2n[nH]c(-c3cccs3)n2)no1,-0.414
15,c1c2c(cc3sc(N4CCOCC4)nc13)OCO2,-0.293
16,CCOc1ccc(N2C(=O)CC(n3ccc(C)n3)C2=O)cc1 (centres undefined),0.896
17,O=C(CN(c1ccc(Cl)c(C(F)(F)F)c1)S(=O)(=O)c1ccccc1)N1CCOCC1,0.315
18,C=CCn1c(Sc2ccccc2)nc2c1c(=O)[nH]c(=O)n2C,-0.222
19,Cc1cccc(NC(=O)c2ccc(C3SCC(=O)N3CCc3ccccc3)cc2)c1 (centres undefined),-0.349
20,Cc1onc(-c2ccccc2Cl)c1C(=O)Nc1nnc(Cc2ccc(Cl)cc2)s1,-0.0869
21,Cc1onc(-c2ccccc2Cl)c1C(=O)Nc1nnc(-c2cccc([N+](=O)[O-])c2)s1,-0.386
